IC50 is the fitted dose that halves viability relative to control wells, and lower means more sensitive; a limit (>, <) means that the fit lies beyond the doses tested. AUC is the area under the same curve over the 256-fold range up to the top dose, as a fraction; it is 1 without any effect and falls as sensitivity rises. For part of these data: Any top dose called inferred comes from the curve model; the source does not state it.
Tests used:
Assay in all cases: Viability of human cancer cell lines after 72 h of drug (GDSC screen)
[1] = compound: C=CCNC1=C2C[C@@H](C)C[C@H](OC)[C@H](O)[C@@H](C)/C=C(\C)[C@H](OC(N)=O)[C@@H](OC)/C=C\C=C(/C)C(=O)NC(=CC1=O)C2=O [17-AAG]; conditions: top dose 1 µM
Procedure: (§1)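 Human cancer cell lines in 384-well plates, medium with 10% serum, drug for 72 h over a 256-fold dose range (nine 2-fold or five 4-fold steps up to the top dose). Adherent lines were fixed and stained with the nucleic acid dye Syto60, suspension lines read with resazurin; signal relative to control wells, capped at 0 and 100%. One two-parameter sigmoid per drug and line, fitted in a mixed model over all curves with the slope shared within a line.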

[2] = compound: CN(C)Cc1cccc(N=C(c2ccccc2)c2c(O)[nH]c3cc(C(=O)N(C)C)ccc23)c1 [BIX02189]; conditions: top dose 20 µM; top dose inferred
Procedure: as §1

[3] = compound: COC(=O)CNC(=O)C(=O)OC [Dimethyloxalylglycine]; conditions: top dose 4000 µM; top dose inferred
Procedure: as §1

[4] = compound: COc1cccc2cc(-c3nc([C@H]4CC[C@H](C(=O)O)CC4)n4ncnc(N)c34)[nH]c12 [OSI-027]; conditions: top dose 20 µM
Procedure: as §1

[5] = compound: CS(=O)(=O)c1ccc(C(=O)Nc2ccc(Cl)c(-c3ccccn3)c2)c(Cl)c1 [Vismodegib]; conditions: top dose 10 µM; top dose inferred
Procedure: as §1

[6] = compound: Cc1cnc(Nc2ccc(F)cc2Cl)nc1-c1c[nH]c(C(=O)N[C@H](CO)c2cccc(Cl)c2)c1 [VX-11e]; conditions: top dose 5.12 µM; top dose inferred
Procedure: as §1

[7] = compound: Cc1cnc(Nc2ccc(OCCN3CCCC3)cc2)nc1Nc1cccc(S(=O)(=O)NC(C)(C)C)c1 [TG101348]; conditions: top dose 10.24 µM
Procedure: as §1

[8] = compound: O=C(c1ccc(C(=O)N2CCC(N3CCCC3)CC2)c(Nc2ccccc2)c1)N1CCC(N2CCCC2)CC1 [UNC1215]; conditions: top dose 1 µM; top dose inferred
Procedure: as §1

[9] = compound: CCc1cc(-c2n[nH]c(C)c2-c2ccc3c(c2)OCCO3)c(O)cc1O [CCT018159]; conditions: top dose 10 µM; top dose inferred
Procedure: as §1

Cell Line | AUC [1] | IC50 [1] | AUC [2] | IC50 [2] | AUC [3] | IC50 [3] | AUC [4] | IC50 [4] | AUC [5] | IC50 [5] | AUC [6] | IC50 [6] | AUC [7] | IC50 [7] | AUC [8] | IC50 [8] | AUC [9] | IC50 [9]
MDA-MB-453 (breast, adherent) | 0.732 | 0.313 µM | 0.959 | > 20 µM | 0.965 | > 4000 µM | 0.279 | 0.273 µM | 0.985 | > 10 µM | 0.975 | > 5.12 µM | 0.889 | > 10.2 µM | 0.984 | > 1 µM | – | –
MHH-CALL-2 (B-cell leukaemia, suspension) | 0.936 | 0.941 µM | – | – | – | – | – | – | 0.996 | > 10 µM | – | – | – | – | 0.993 | > 1 µM | 0.953 | > 10 µM
TC-YIK (cervix, suspension) | 0.891 | 0.894 µM | – | – | – | – | – | – | 0.978 | > 10 µM | – | – | – | – | 0.985 | > 1 µM | 0.934 | > 10 µM
BALL-1 (B-cell leukaemia, suspension) | 0.993 | > 1 µM | – | – | – | – | – | – | 0.991 | > 10 µM | – | – | – | – | 0.997 | > 1 µM | 0.979 | > 10 µM
IGROV-1 (ovary, adherent) | 0.639 | 0.182 µM | – | – | – | – | – | – | 0.97 | > 10 µM | – | – | – | – | 0.951 | > 1 µM | 0.911 | > 10 µM
SK-N-FI (neuroblastoma, adherent) | 0.939 | > 1 µM | 0.986 | > 20 µM | 0.849 | 2970 µM | 0.798 | 9.41 µM | 0.959 | > 10 µM | 0.958 | > 5.12 µM | 0.933 | > 10.2 µM | 0.988 | > 1 µM | – | –
MEL-HO (melanoma, adherent) | 0.524 | – | – | – | – | – | – | – | 0.966 | > 10 µM | – | – | – | – | 0.985 | > 1 µM | 0.902 | > 10 µM
CML-T1 (chronic myeloid leukaemia, suspension) | 0.97 | > 1 µM | – | – | – | – | – | – | 0.964 | > 10 µM | – | – | – | – | 0.978 | > 1 µM | 0.887 | 7.83 µM
NB69 (neuroblastoma, adherent) | 0.759 | 0.314 µM | 0.965 | > 20 µM | 0.445 | 181 µM | 0.351 | 0.511 µM | 0.989 | > 10 µM | 0.848 | 3.18 µM | 0.794 | 4.14 µM | – | – | 0.931 | > 10 µM
COR-L321 (lung, suspension) | 0.977 | > 1 µM | 0.964 | > 20 µM | – | – | 0.507 | 1.31 µM | 0.938 | > 10 µM | 0.956 | > 5.12 µM | 0.9 | > 10.2 µM | 0.988 | > 1 µM | 0.964 | > 10 µM
DU-145 (prostate, adherent) | 0.916 | > 1 µM | 0.961 | > 20 µM | 0.644 | 660 µM | 0.81 | 12.1 µM | 0.834 | 7.57 µM | 0.981 | > 5.12 µM | 0.985 | > 10.2 µM | 0.981 | > 1 µM | – | –
SUP-B8 (B-cell leukaemia, suspension) | 0.959 | > 1 µM | – | – | – | – | – | – | 0.98 | > 10 µM | – | – | – | – | 0.987 | > 1 µM | 0.922 | > 10 µM
SNU-61 (large intestine, adherent) | 0.875 | > 1 µM | 0.959 | > 20 µM | – | – | 0.862 | > 20 µM | 0.985 | > 10 µM | 0.706 | 1.49 µM | 0.816 | 8.12 µM | 0.973 | > 1 µM | 0.982 | > 10 µM
CL-40 (large intestine, adherent) | 0.638 | 0.194 µM | – | – | – | – | – | – | 0.966 | > 10 µM | – | – | – | – | 0.951 | > 1 µM | 0.97 | > 10 µM
C-33-A (cervix, adherent) | 0.971 | > 1 µM | 0.82 | 11.6 µM | 0.813 | 2180 µM | 0.174 | 0.129 µM | 0.978 | > 10 µM | 0.882 | > 5.12 µM | 0.978 | > 10.2 µM | 0.984 | > 1 µM | – | –
JEKO-1 (B-cell lymphoma, suspension) | 0.923 | > 1 µM | – | – | – | – | – | – | 0.944 | > 10 µM | – | – | – | – | 0.972 | > 1 µM | 0.908 | > 10 µM
KMS-11 (myeloma, suspension) | 0.861 | 0.653 µM | 0.926 | > 20 µM | – | – | 0.747 | 5.59 µM | 0.988 | > 10 µM | 0.954 | > 5.12 µM | 0.837 | 5.49 µM | 0.982 | > 1 µM | 0.952 | > 10 µM
MOLM-16 (acute myeloid leukaemia, suspension) | 0.823 | 0.496 µM | – | – | – | – | – | – | 0.952 | > 10 µM | – | – | – | – | 0.986 | > 1 µM | 0.741 | 2.75 µM
RCH-ACV (B-cell leukaemia, suspension) | 0.956 | > 1 µM | – | – | – | – | – | – | 0.984 | > 10 µM | – | – | – | – | 0.977 | > 1 µM | 0.954 | > 10 µM
GA-10 (Burkitt lymphoma, suspension) | 0.921 | > 1 µM | – | – | 0.194 | 37.7 µM | – | – | 0.979 | > 10 µM | – | – | – | – | 0.986 | > 1 µM | 0.893 | 8.64 µM
SK-MEL-31 (melanoma, adherent) | 0.923 | > 1 µM | – | – | – | – | – | – | 0.985 | > 10 µM | – | – | – | – | 0.977 | > 1 µM | 0.985 | > 10 µM
CAPAN-1 (pancreas, adherent) | 0.745 | 0.345 µM | 0.979 | > 20 µM | 0.383 | 115 µM | 0.71 | 5.26 µM | 0.986 | > 10 µM | 0.881 | > 5.12 µM | 0.87 | > 10.2 µM | – | – | 0.977 | > 10 µM
